Experimental data from PubChem BioAssay AID1508623 (National Center for Advancing Translational Sciences (NCATS), 2021).
Among all 48,000 compounds or so, about 450 (0.94%) were called active. Not shown: some 19% with an inconclusive outcome. The call rests on the fitted dose curve; in most records, active means well fitted inhibition curve with a large enough effect; inconclusive means small, poorly fitted or top-dose-only effect; inactive means no such curve, though single readings can be large or run the other way. Some of the results follow.

assay: Primary qHTS for Identification of Small Molecule Inhibitors of Huntingtin Promoter Activity; details: HEK293 HTT promoter firefly luciferase reporter (activity 0% = vehicle and -100% = no light), 24 h; series mostly up to 57.5 µM; activity change, negative = inhibition: at the top concentration; further: nearly all actives have a fitted effect of over 50% in size
Outline: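 HEK293 Fluc reporter, 2,500 cells/well, 24 h pre-culture; cpds up to 57.5 uM final, 24 h 37 degrees C; Dual-Glo, 10 min RT; normalized vehicle = 0%, zero RLU = -100%.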

Activity change, negative = inhibition, inactive:
COCCNC(=O)C1CCN(Cc2cc3ccccc3n2Cc2ccc(C)cc2)CC1 4.91%, c1ccc2c(CCNc3ccc(Nc4ccncc4)cc3)c[nH]c2c1 -18.3%, O=C(COc1ccc(F)cc1)Nc1nnc(S(=O)(=O)N2CCCC2)s1 -4.65%, COc1ccc(NC(=O)c2nnn(Cc3nc(-c4cc(OC)c(OC)c(OC)c4)oc3C)c2C)cc1Cl -17.4%, COc1ccccc1CNC(=O)c1ccc2[nH]c(C)c(C)c2c1 -3.75%, CCCCNC(=O)C(CC)Sc1nc2ccccc2c(=O)n1Cc1ccco1 (centres undefined) -16.6%, COCCCNC(=O)Cn1c(=O)n(-c2ccc(C)c(C)c2)c(=O)c2c3c(sc21)CCCCC3 -5.01%, COCCNC(=O)c1sc2ncccc2c1-n1c(C)ccc1C -10.7%, CCC(C)n1c(=O)c2sccc2n2c(CCCC(=O)NCc3ccccc3Cl)nnc12 (centres undefined) -18.8%, Cc1ccc(C(=O)c2sc(Nc3ccccc3)c(S(=O)(=O)c3ccccc3)c2N)c(C)c1 -19.5%, CCOC(=O)c1cccc(NC(=O)Cn2c(=O)c3cccn3c3ccccc32)c1 -8.89%, Cc1cc(C)n2nc(CNC(=O)c3c(F)cccc3F)nc2n1 3.31%, NCCCCCC(=O)O, Cc1ccc(-c2cn3cccnc3n2)cc1NC(=O)Nc1ccc(F)cc1 4.26%, CC(C)(C)OC(=O)N1CCC(c2c(C(=O)N3CCN(c4ccccn4)CC3)cnn2-c2ccc(F)cc2)CC1 -24.8%, COc1ccc2c(c1)c(=O)c(S(=O)(=O)c1ccc(F)cc1)cn2Cc1ccccc1Cl -16.6%, COc1cccc2c(C)cc3nnc(SCC(=O)Nc4ccc(C)cc4)n3c12 3.6%, O=C(Cn1ncc2c1-c1ccccc1OC2)N1CCN(c2ccccc2)CC1 -19.1%, COCCNC(=O)CN1C(=O)c2cccnc2Sc2ccccc21 -12.6%, CCCCOc1ccc(C(=O)N2CCCCC2CCN2CCOCC2)cc1 (centres undefined) -6.24%, Cc1cc(Cl)ccc1OCC(=O)N(Cc1sccc1C)C1CCS(=O)(=O)C1 (centres undefined) 18.4%, CC(=O)c1ccc(NC(=O)CSc2nc(-c3ccc(C)cc3)nc3c2c(=O)n(C)c(=O)n3C)cc1 0.958%, CCCOc1cccc(C(=O)N(Cc2sccc2C)C2CCS(=O)(=O)C2)c1 (centres undefined) -19.7%, COc1ccc(CNC(=O)c2cnc(N(C)C)nc2)cc1 -16.5%, Cc1ccc2c(c1)C(=O)[C@]1(O)CCN(c3ccccc3)C1=N2 -6.19%, CC(C)OCCCNC(=O)CN1C(=O)c2cccnc2Sc2ccccc21 -4.09%, O=C(Cn1cc(SCc2c(F)cccc2Cl)c2ccccc21)N1CCCCC1 26.9%, Cn1c(=O)n(Cc2ccccc2)c(=O)c2c1nc1n2CCN1c1ccccc1 0.139%, CCN(CC)CCNC(=O)CN1N=C(c2ccc(OC)cc2)CCC1=O -8.91%, Cc1cccn2cc(-c3cccc(NC(=O)C(C)C)c3)nc12 17.4%, CCN(CC)CCNC(=O)C(=O)NCC(c1ccc2c(c1)OCO2)N1CCOCC1 (centres undefined) -5.66%, O=C(CSc1cn(CC(=O)N2CCCCC2)c2ccccc12)NCc1ccccc1 -30.4%, CCCN1C(=O)c2[nH]nc(-c3ccccc3)c2C1c1cccc(O)c1 (centres undefined) -7.97%, CCOc1ccc(-c2nnc(SCC(=O)NCc3ccccc3Cl)o2)cc1 -8.8%, Cc1ccc(NC(=O)c2oc3ccccc3c2NC(=O)Cc2ccccc2)cc1 -7%, CCOc1ccc(S(=O)(=O)N2CCN(c3cccc(C(F)(F)F)c3)CC2)cc1OCC -30.8%, COc1ccccc1NC(=O)CSC1=Nc2ccccc2C2=NC(Cc3ccccc3)C(=O)N12 (centres undefined) -21%, COc1ccc2c(c1)CCc1sc(NC(=O)c3cccc(Br)c3)nc1-2 -27.3%, Cc1cc(C)c(S(=O)(=O)NCC(c2ccco2)N2CCOCC2)c(C)c1 (centres undefined) -21.6%, CCc1nc2c(cnn2-c2ccc(C)cc2)c(=O)n1Cc1ccccc1 -24.5%, CCOC(=O)N1CCc2c(sc3c2c(=O)n(Cc2ccccc2)c(=O)n3Cc2cccc(C)c2)C1 -11%, Cc1ccc(-c2onc(C)c2C)cc1S(=O)(=O)NCc1ccc(N(C)C)cc1 -23.8%, COc1ccc(NC(=O)c2cc(C)nc3c2c(C)nn3-c2ccc(C)cc2)cc1OC -27.1%, COc1cccc(Cn2c(=O)n(-c3cccc(Cl)c3)c(=O)c3c4c(sc32)CN(C(C)=O)CC4)c1 -37.8%, C=CCC(CC=C)(CNC(=O)C(=O)Nc1ccc(C)cc1)c1ccccc1 34.8%, COc1ccccc1-c1nnc(C2CCN(C(=O)c3cccc(C)c3)CC2)o1 -15.8%, CCn1c(=O)cc(OCC(=O)NCc2ccccc2OC)c2ccccc21 -13.8%, CC1=C(C)C(=O)C(C(CCCCCC(=O)O)c2ccccc2)=C(C)C1=O (centres undefined), Cc1c2cnn(CC(=O)N3CCN(c4ccccc4)CC3)c(=O)c2c(C)n1Cc1ccccc1Cl 2.92%, CSc1ncc(Cl)c(C(=O)Nc2ccc(S(=O)(=O)Nc3nccc(C)n3)cc2)n1 -11.2%, CCCCN(C)CCCNC(=O)CN1N=C(c2ccc(OC)cc2)CCC1=O -4.88%, CC(=O)c1ccc(NC(=O)CCc2c(C)nc3c(c2C)c(=O)n(C)c(=O)n3C)cc1 8.55%, Cc1ccc(CCNC(=O)c2ccc3[nH]c(C)c(C)c3c2)cc1 -14.7%, O=C(NCc1ccccc1F)c1sc2ncccc2c1-n1cccc1 -22.6%, O=C(O)Cn1cnnn1 2.57%, COC(=O)CN1C(=O)C(C)(C)c2cc(S(=O)(=O)Nc3ccc(Br)cc3F)ccc21 -22.8%, Cc1[nH]c2ccc(Br)cc2c1CCNC(=O)c1cc2ccccc2oc1=O -2.75%, CCN(CC)c1ccc(NC(=O)CN2CCN(c3ccccc3F)CC2)cc1 -16.6%, CCOc1ccc(C2=NC(c3cccs3)=Nc3ccc(CC)cc3N2)cc1OCC 11%, CC(=O)N1CCCc2cc(S(=O)(=O)N3CCCC(C(=O)Nc4ccc(C)cc4C)C3)ccc21 (centres undefined) -7.07%, CNCCc1ccccn1 1.98%, COc1ccc(-n2nc3cc(C)c(NC(=O)c4ccc(-c5ccc(Br)cc5)o4)cc3n2)cc1 35.5%, CC(=O)c1cccc(-n2c(=O)c3c4c(sc3n(Cc3cccc(C)c3)c2=O)CN(C(C)=O)CC4)c1 -10.3%, Cc1cccc(NC(=O)CN2C(=O)C(c3ccccc3)=NC23CCC(C)CC3)c1 (centres undefined) -24.6%, Cc1cc(C)n(CCc2nc3c4ccccc4nc(N4CCN(c5cccc(C)c5C)CC4)n3n2)n1 -4.78%, COc1ccc(C(=O)Nc2ccc3c(c2)CCCN3S(=O)(=O)c2ccc(C)cc2)c(OC)c1 8.14%, CCc1ccc(S(=O)(=O)c2cn(C)c3cc(N4CCCC4)c(F)cc3c2=O)cc1 -8.72%, COC(=O)c1nnn(-c2ccc(Br)cc2)c1C(=O)OC -11.4%, Cc1cc(C)cc(C(=O)NCC(c2ccc(N(C)C)cc2)N2CCCC2)c1 (centres undefined) -7.37%, CCOC(=O)CC(NC(=O)CCc1c(C)nc2ncnn2c1C)c1ccc(C)cc1 (centres undefined) -3.25%, CCOc1ccc(C(=O)NCCc2csc(-c3cccc(F)c3)n2)cc1OCC -36.4%, COc1cccc(NC(=O)C2CCCN(S(=O)(=O)c3cccc4nonc34)C2)c1 (centres undefined) -8.77%, Cc1cn2c(=O)c(S(=O)(=O)Nc3ccc(F)cc3F)c(C)nc2s1 -6.34%, O=C(NCc1ccc(Cl)cc1)c1ccc(Cn2c(=O)c3cccn3c3cccnc32)cc1 -5.98%, Oc1ccccc1Nc1nc2ccccc2n2nnnc12 27.3%, COc1ccc(S(=O)(=O)N2CCN(Cc3nc4ccc(C)cc4o3)CC2)cc1 -13.7%, Cc1cnc(Nc2ccc(OCCN3CCCC3)cc2)nc1Nc1cccc(S(=O)(=O)NC(C)(C)C)c1 -5.17%, O=C1CCc2cc(S(=O)(=O)NC(C(=O)Nc3cccc(F)c3)c3ccccc3)ccc2N1 (centres undefined) 7.79%, COCCCNC(=O)c1ccc2c(c1)N(Cc1ccccc1F)C(=O)c1ccccc1S2=O (centres undefined) -15.7%, COc1ccc(-c2nnc(SCC(=O)Nc3ccc(C)c(C)c3)s2)cc1 -16.4%, CCc1ccccc1NC(=O)CCCN1C(=O)CCn2nc(-c3cn(C)c4ccccc34)cc21 -5.74%, COc1cccc(NC(=O)c2oc3ccccc3c2NC(=O)C2CCCCC2)c1 -8.49%, COc1ccc(C(=O)/C=C/c2cn(CC(O)CN3CCc4ccccc43)c3ccccc23)cc1 (centres undefined) -19.1%, COC(=O)c1cc(NC(=O)c2cc3sccc3n2Cc2ccc(Cl)cc2)cc(C(=O)OC)c1 -13.9%, O=C1NC(NS(=O)(=O)c2ccccc2)(C(F)(F)F)C(=O)N1c1ccc(F)cc1 (centres undefined) -5.85%, Cc1cc(N2CCC(C(=O)N(CC(C)C)CC(C)C)CC2)n2nc(C)c(-c3ccc(Cl)cc3)c2n1 -6.5%, O=C(c1cnn(-c2ccc(F)cc2)c1-n1cccc1)N1CCN(c2ccc(Cl)cc2)CC1 -25.2%, COc1ccccc1NC(=O)Cn1c(=O)c(CNc2ccccc2)cc2cc(OC)c(OC)cc21 -1.56%, Fc1ccc(-n2ncc3c(Nc4cccc(Cl)c4)ncnc32)cc1 -4.37%, Cc1cc(C)cc(OCc2cc(=O)n3c(-c4ccccc4)csc3n2)c1 -1.36%, CSc1ncc(Cl)c(C(=O)N(Cc2ccc(C)cc2)C2CCS(=O)(=O)C2)n1 (centres undefined) -5.76%, COc1ccccc1C1C=C(c2ccc(C(C)C)cc2)Nc2nnnn21 (centres undefined) -26.5% [at 11.5 µM], Cc1cccc(CNC(=O)c2ccc3c(c2)c(C)c(C)n3Cc2ccccc2)c1 -19.2%, COc1cc(OC)cc(-c2nc3nc(C)c(CCC(=O)Nc4ccc(C)cc4C)c(C)n3n2)c1 -20%, O=S(=O)(c1ccccc1)c1nnn2c1nc(NCc1ccc(Cl)cc1)c1sccc12 0.369%, O=C1CCc2cc(S(=O)(=O)NCc3ccccc3Cl)cc3c2N1CC3 -4.15%, CCN(CC)S(=O)(=O)c1ccc(C(=O)Nc2nc3ccc(Cl)cc3s2)cc1 -18.9%, O=C(CCn1ccc2cc(S(=O)(=O)N3CCCC3)ccc21)NCc1ccccc1F -20.5%, Cc1ccc(S(=O)(=O)c2nnn3c2nc(NCc2cccs2)c2sccc23)cc1 -11.1%
